{"source": "the BET-seq Pho4 binding data (Le et al. 2018)", "note": "The other results are listed elsewhere or left out. These are noisy estimates, calculated here from bound and input reads."}
{"biological_target": "T1, Pho4 (S. cerevisiae) (UniProt P07270)", "T1 sequence": "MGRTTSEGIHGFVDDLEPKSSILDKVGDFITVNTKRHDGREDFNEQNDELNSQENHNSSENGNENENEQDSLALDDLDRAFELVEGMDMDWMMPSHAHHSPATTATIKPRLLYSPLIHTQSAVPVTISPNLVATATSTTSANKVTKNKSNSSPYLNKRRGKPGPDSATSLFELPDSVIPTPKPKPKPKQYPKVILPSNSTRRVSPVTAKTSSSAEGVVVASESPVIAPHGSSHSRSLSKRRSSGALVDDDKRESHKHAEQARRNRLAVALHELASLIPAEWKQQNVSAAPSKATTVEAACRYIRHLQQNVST", "assay": "relative binding free energy (BET-seq); higher = weaker binding", "conditions": "reference: library average", "units": {"relative binding free energy": "kcal/mol"}}
{"sequence": "GGTGTCACGTGTTCAA", "relative binding free energy": 0.12}
{"sequence": "GGGACCACGTGTGGAG", "relative binding free energy": 0.09}
{"sequence": "TGGAGCACGTGTTAAA", "relative binding free energy": -0.01}
{"sequence": "ATGAGCACGTGAGGCG", "relative binding free energy": 0.12}
{"sequence": "AACGGCACGTGAGTGG", "relative binding free energy": -0.01}
{"sequence": "GTCGGCACGTGGTTCG", "relative binding free energy": 0.09}
{"sequence": "TAGGACACGTGATTGC", "relative binding free energy": 0.24}
{"sequence": "CATATCACGTGGGTTG", "relative binding free energy": 0.02}
{"sequence": "ATGCGCACGTGGTATG", "relative binding free energy": -0.17}
{"sequence": "TCTTTCACGTGGGTAT", "relative binding free energy": 0.21}
{"sequence": "GTGTGCACGTGTAAAG", "relative binding free energy": 0.08}
{"sequence": "GTCAGCACGTGGGGCG", "relative binding free energy": -0.09}
{"sequence": "TATAACACGTGCGGGT", "relative binding free energy": -0.11}
{"sequence": "TGCGGCACGTGCTTTG", "relative binding free energy": -0.08}
{"sequence": "CTGGTCACGTGGTTAG", "relative binding free energy": 0.14}
{"sequence": "ATCGGCACGTGCAGGT", "relative binding free energy": -0.05}
{"sequence": "ATAAGCACGTGGGGCT", "relative binding free energy": -0.26}
{"sequence": "CGTTGCACGTGCTTGA", "relative binding free energy": 0.06}
{"sequence": "TGTTGCACGTGGCTGG", "relative binding free energy": -0.07}
{"sequence": "TGGGTCACGTGGCAAT", "relative binding free energy": 0}
{"sequence": "TTGAGCACGTGTTAAG", "relative binding free energy": 0}
{"sequence": "TGTTTCACGTGCACGG", "relative binding free energy": 0.21}
{"sequence": "AGTTACACGTGCTTTA", "relative binding free energy": 0.09}
{"sequence": "TTTCTCACGTGGGGGT", "relative binding free energy": 0.09}
{"sequence": "GATGGCACGTGTGCTT", "relative binding free energy": 0.08}
{"sequence": "AGGGTCACGTGTTCAG", "relative binding free energy": 0.12}
{"sequence": "GGGGCCACGTGTATTG", "relative binding free energy": -0.03}
{"sequence": "CATTGCACGTGGCGGG", "relative binding free energy": -0.05}
{"sequence": "ACGGGCACGTGCGGAT", "relative binding free energy": -0.1}
{"sequence": "CTTTGCACGTGAGCGT", "relative binding free energy": 0.09}
{"sequence": "ATCCTCACGTGTTGGG", "relative binding free energy": 0.22}
{"sequence": "GTGGTCACGTGAGGTA", "relative binding free energy": 0.37}
{"sequence": "CGTAGCACGTGTATGT", "relative binding free energy": -0.26}
{"sequence": "TGTTACACGTGTGTTC", "relative binding free energy": 0.21}
{"sequence": "GCGTGCACGTGTATTG", "relative binding free energy": 0.01}
{"sequence": "TATATCACGTGTCTAT", "relative binding free energy": 0.19}
{"sequence": "ATTGGCACGTGCCGGG", "relative binding free energy": -0.19}
{"sequence": "TAAGTCACGTGTGCGC", "relative binding free energy": 0.15}
{"sequence": "TAATTCACGTGTTACG", "relative binding free energy": 0.33}
{"sequence": "TGGGGCACGTGCGTGA", "relative binding free energy": -0.14}
{"sequence": "GATGACACGTGGTCGT", "relative binding free energy": 0.02}
{"sequence": "TCGGCCACGTGGGTTT", "relative binding free energy": -0.15}
{"sequence": "TTGTTCACGTGCGTCG", "relative binding free energy": 0.18}
{"sequence": "GTAAGCACGTGTATTT", "relative binding free energy": -0.07}
{"sequence": "ACGGACACGTGTAGGG", "relative binding free energy": 0.14}
{"sequence": "CTGGGCACGTGTTTGA", "relative binding free energy": -0.14}
{"sequence": "TGTTACACGTGAGTGA", "relative binding free energy": 0.2}
{"sequence": "TGGTTCACGTGCAATT", "relative binding free energy": 0.31}
{"sequence": "AGATTCACGTGGAGGG", "relative binding free energy": 0.17}
{"sequence": "TGTGGCACGTGCTGTG", "relative binding free energy": -0.17}
{"sequence": "TTTATCACGTGCTGGC", "relative binding free energy": 0.02}
{"sequence": "GTGGACACGTGGGCGC", "relative binding free energy": -0.07}
{"sequence": "CGGTGCACGTGAGTTC", "relative binding free energy": 0.35}
{"sequence": "GAGTTCACGTGTTAAG", "relative binding free energy": 0.45}
{"sequence": "GAATGCACGTGGTTTA", "relative binding free energy": 0.06}
{"sequence": "TGGAGCACGTGCGAGG", "relative binding free energy": -0.23}
{"sequence": "TTAGTCACGTGGCTTA", "relative binding free energy": 0.06}
{"sequence": "GATTTCACGTGTAAAG", "relative binding free energy": 0.38}
